Assay results as given in patent US20240043504A1.
Numbering of substitutions follows the chain as printed. Several values for one entry are separate records, joined by “and”; a condition that tells them apart may be missing. Equal entries are not always repeated.

B1: mAb10913 (antibody)
heavy: EVQLVESGGGLVQPGGSLRLSCAASGFTFRNYEMNWVRQAPGKGLEWVSYITSSGSTMYYADSVKGRFTISRDNAKNSLYLQMNSLRAEDTAVYYCARDGFYYYYAMDVWGQGTTVTVSS[human IgG1 constant region left out]
light: QSVLTQPPSVSAAPGQKVTISCSGSSSNIGNNYVSWYQQLPGTAPKLLIYDNNKRPSGIPDRFSGSKSGTSATLGITGLQTGDEADYYCGTWDSSLSVGRVFGTGTKVTVLGQPKAAPSVTLFPPSSEELQANKATLVCLISDFYPGAVTVAWKADSSPVKAGVETTTPSKQSNNKYAASSYLSLTPEQWKSHRSYSCQVTHEGSTVEKTVAPTECS
B2: mAb10914 (antibody)
heavy: EVQLVESGGGLVQPGGSLRLSCAASGLIVSRNYMIWVRQAPGKGLEWVSVIYSGGSTFYADSVKGRFTISRHNSKNTLYLQMNSLRAEDTAVYYCARDLGTGGMDVWGQGTTVTVSS[human IgG1 constant region left out]
light: DIQLTQSPSFLSASVGDRVTITCWASQGISSYLAWYQQKPGKAPKLLIYAASTLQSGVPSRFSGSGSGTEFTLTISSLQPEDFATYYCQQLNSYPLTFGGGTKVEIKRTVAAPSVFIFPPSDEQLKSGTASVVCLLNNFYPREAKVQWKVDNALQSGNSQESVTEQDSKDSTYSLSSTLTLSKADYEKHKVYACEVTHQGLSSPVTKSFNRGEC
B3: mAb10957 (antibody)
heavy: B2 heavy with L27V, I28T, R31S, I35S, H72D, Y79F, A87I, T101P, G102Y
light: DIQLTQSPSFLSASVGDRVTITCRASQGISSYLAWYQQKPGKAPKLLIYAASTLQSGVPSRFSGSGSGTQFILTISSLQPEDFATYYCQQLNSYPGFTFGPGTKVDIKRTVAAPSVFIFPPSDEQLKSGTASVVCLLNNFYPREAKVQWKVDNALQSGNSQESVTEQDSKDSTYSLSSTLTLSKADYEKHKVYACEVTHQGLSSPVTKSFNRGEC

Biological target: SARS-CoV-2 Spike Protein (RBD)(R319-F541).mmH (SARS-CoV-2)
Assay: Luminex, supernatant
Conditions: remark: other sources report otherwise

Binder | MFI
B1 | 30700 MFI and 29200 MFI
B2 | 32000 MFI and 29600 MFI
B3 | 23400 MFI and 20600 MFI
